The target in one test is T1, IGF1 receptor (IGF1R) (human, UniProt P08069 31-1367).
T1 construct: insulin-like growth factor 1 receptor, human, on R+39 cells; source: mouse fibroblasts with deleted mouse IGF-1R, transfected with human IGF-1R (R+39 cells), whole cells
The test is described as follows: radioligand binding; competition of cold ligand with [125I]-iodotyrosyl-IGF1 for human IGF-1R on R+39 mouse fibroblasts; one-site fit; affinity relative to IGF1. The following applies: one partner purified.

Test [1] addresses T2, insulin receptor isoform A (IR-A) (human, UniProt P06213-2).
T2 construct: The phosphorylation assays used mouse fibroblasts transfected with human IR-A (R-/IR-A), not IM-9 cells; source: endogenous, human IM-9 lymphocytes (whole cells)
The test is described as follows: radioligand binding; competition of cold ligand with [125I]-monoiodotyrosyl-TyrA14-insulin for human IR-A on whole IM-9 lymphocytes; one-site fit; affinity relative to human insulin. The note with it: one partner purified.

Test [2] has as its target T3, insulin receptor isoform B (IR-B) (human, UniProt P06213-1).
T3 construct: insulin receptor, isoform B, human, on transfected mouse fibroblasts; source: mouse fibroblasts with deleted mouse IGF-1R, stably transfected with human IR-B (R-/IR-B), whole cells
The test is described as follows: radioligand binding; competition of cold ligand with [125I]-monoiodotyrosyl-TyrA14-insulin for human IR-B on transfected mouse fibroblasts; one-site fit; affinity relative to human insulin. The note with it: one partner purified.

In test [3] the target is T4, mannose-6-phosphate/IGF2 receptor (M6P/IGF2R), native in R- cells (mouse (endogenous in R- cells), UniProt Q07113 36-2483).
T4 construct: cation-independent mannose-6-phosphate receptor / IGF2 receptor, native on R- cells (3T3-like fibroblasts from mouse embryos); source: endogenous, R- cells (mouse embryo fibroblasts with disrupted Igf1r), whole cells
The test is described as follows: radioligand binding; competition of cold ligand (10^-12-10^-6 M) with [125I]-monoiodotyrosyl-Tyr2-IGF2 (43,000 cpm) for M6P/IGF2R on R- cells; 16 h at 5 °C, 100 mM HEPES pH 7.6, 100 mM NaCl, 1% BSA; affinity relative to IGF2. The note with it: one partner purified.

The next test has as its target T5, His-tagged IGFBP3 (UniProt P17936).
T5 construct: also called IGBP3; source: bought: Sino Biological
The test is described as follows: radioligand binding; competition of cold ligand (10^-12-10^-6 M) with [125I]-monoiodotyrosyl-Tyr2-IGF2 (43,000 cpm) for His-tagged IGFBP3 immobilized via neutravidin and Ni-NTA iBodies; 16 h at 5 °C, HEPES pH 7.6; affinity relative to IGF2. The following applies: both partners purified.

T4 sequence (Q07113 36-2483): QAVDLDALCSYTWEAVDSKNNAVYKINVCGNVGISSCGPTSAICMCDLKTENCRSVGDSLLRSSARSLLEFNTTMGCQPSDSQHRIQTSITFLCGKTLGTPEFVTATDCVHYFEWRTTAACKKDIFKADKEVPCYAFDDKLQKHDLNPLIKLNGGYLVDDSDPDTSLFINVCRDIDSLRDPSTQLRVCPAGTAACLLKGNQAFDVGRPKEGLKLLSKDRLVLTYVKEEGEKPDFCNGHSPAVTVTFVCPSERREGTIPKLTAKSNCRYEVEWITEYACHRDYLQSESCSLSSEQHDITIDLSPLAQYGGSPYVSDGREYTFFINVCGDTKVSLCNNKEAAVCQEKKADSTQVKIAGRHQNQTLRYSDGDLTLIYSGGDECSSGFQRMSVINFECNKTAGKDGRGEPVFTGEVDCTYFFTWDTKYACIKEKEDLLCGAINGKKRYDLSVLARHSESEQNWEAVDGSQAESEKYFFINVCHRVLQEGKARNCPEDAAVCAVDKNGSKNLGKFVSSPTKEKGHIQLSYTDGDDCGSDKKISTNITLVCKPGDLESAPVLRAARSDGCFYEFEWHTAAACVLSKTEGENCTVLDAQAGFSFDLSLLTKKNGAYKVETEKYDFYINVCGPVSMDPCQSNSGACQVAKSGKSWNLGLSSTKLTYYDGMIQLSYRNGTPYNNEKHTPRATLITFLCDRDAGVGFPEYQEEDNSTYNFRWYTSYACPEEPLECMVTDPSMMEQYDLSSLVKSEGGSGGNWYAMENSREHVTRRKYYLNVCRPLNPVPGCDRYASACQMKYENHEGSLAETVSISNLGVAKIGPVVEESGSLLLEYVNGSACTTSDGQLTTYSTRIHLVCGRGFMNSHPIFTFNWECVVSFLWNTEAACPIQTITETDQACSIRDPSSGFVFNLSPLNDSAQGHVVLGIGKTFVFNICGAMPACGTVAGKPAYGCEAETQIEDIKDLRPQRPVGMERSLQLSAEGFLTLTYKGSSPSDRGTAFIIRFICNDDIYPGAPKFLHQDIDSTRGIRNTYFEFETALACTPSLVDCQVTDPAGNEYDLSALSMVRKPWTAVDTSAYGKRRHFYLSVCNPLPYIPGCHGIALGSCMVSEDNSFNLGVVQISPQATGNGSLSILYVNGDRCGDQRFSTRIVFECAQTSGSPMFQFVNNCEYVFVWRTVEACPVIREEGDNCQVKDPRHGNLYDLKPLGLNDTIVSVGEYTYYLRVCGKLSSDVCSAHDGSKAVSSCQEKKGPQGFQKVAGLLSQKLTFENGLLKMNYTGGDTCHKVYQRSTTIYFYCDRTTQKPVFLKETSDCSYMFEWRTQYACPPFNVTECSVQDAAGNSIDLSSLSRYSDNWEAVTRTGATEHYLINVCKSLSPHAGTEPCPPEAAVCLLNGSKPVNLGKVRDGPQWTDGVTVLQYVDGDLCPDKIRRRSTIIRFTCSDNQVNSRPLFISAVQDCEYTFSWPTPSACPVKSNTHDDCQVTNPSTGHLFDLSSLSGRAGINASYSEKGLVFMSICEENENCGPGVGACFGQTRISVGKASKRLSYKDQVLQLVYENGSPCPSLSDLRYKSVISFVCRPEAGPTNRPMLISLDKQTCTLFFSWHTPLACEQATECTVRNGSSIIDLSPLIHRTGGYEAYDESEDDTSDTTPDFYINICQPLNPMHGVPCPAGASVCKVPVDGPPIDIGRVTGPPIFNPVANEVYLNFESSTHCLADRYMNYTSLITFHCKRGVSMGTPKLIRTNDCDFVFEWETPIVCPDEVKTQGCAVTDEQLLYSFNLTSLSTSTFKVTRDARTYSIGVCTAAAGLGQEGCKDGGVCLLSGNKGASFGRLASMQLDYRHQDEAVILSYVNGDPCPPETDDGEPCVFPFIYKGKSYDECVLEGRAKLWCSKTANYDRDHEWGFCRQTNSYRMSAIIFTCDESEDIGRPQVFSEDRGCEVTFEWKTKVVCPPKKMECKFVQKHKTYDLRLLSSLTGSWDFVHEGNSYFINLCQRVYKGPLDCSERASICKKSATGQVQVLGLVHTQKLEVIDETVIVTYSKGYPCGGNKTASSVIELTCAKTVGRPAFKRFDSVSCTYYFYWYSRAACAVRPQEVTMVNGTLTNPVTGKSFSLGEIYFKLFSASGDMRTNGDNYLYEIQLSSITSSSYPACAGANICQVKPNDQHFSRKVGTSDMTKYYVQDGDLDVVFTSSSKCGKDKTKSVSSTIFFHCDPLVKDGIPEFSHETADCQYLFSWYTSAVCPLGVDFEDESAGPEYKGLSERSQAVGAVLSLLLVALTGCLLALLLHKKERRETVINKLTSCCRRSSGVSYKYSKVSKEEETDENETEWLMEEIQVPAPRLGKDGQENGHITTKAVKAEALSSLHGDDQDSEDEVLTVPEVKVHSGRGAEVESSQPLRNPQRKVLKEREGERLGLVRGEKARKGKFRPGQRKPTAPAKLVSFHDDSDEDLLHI
Chain of His-tagged IGFBP3 (P17936 28-291): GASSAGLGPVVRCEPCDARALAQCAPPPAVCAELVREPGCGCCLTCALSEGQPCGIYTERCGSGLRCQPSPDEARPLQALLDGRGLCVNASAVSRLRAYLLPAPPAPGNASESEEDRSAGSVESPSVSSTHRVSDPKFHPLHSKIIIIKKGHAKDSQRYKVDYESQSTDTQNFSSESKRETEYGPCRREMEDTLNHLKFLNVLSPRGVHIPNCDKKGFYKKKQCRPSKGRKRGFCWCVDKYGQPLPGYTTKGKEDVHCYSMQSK

B1: pro-IGF2(156) (ligand)
chain: not shown
notes: source: non-glycosylated; not shown: His6, N-terminal, cleaved; GB1, N-terminal, cleaved
Take B1: the “relative binding affinity (% of IGF1)” value in the test with IGF1 receptor (IGF1R) is 0.35%. Further, the “relative binding affinity (% of human insulin)” value turned out to be 2.2% in test [1] and 1.6% in test [2]. Also, the results for the “relative binding affinity (% of IGF2)” value (in test [3]; in the test with His-tagged IGFBP3) were 20% and 16%, respectively.

B2: glycosylated pro-IGF2(156) (ligand)
chain: not shown
modifications: glycosylated (sites and glycans not given)
notes: source: bought: Biomol (No. 97562)
Consider B2, for which the “relative binding affinity (% of IGF1)” value with IGF1 receptor (IGF1R) amounted to 0.2%. For the same molecule, the “relative binding affinity (% of human insulin)” value in test [1] was determined as 2%. The results for the “relative binding affinity (% of IGF2)” value (in test [3]; with His-tagged IGFBP3) were less than 1% and 18%, respectively.

(Values after PMC10439913, “Non-glycosylated IGF2 prohormones are more mitogenic than native IGF2” (Communications Biology, 2023).)
